# Data from the supplement of paper PMC11417369.
# ± gives the standard deviation of the averaged measurements. The list shows a part of the results.
# Test system: PfAP2-LT AP2 domain (GST-tagged)
# Assay: gcPBM binding intensity (ln(normalized median fluorescence intensity)); higher = stronger DNA binding
# Summary of the method: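 In this array assay, P. falciparum DNA-binding domains with a GST tag, expressed in E. coli, were applied for 1 h to primer-extended double-stranded 36-bp intergenic genomic probes and negative controls on an Agilent 4 × 180k array. Bound protein was visualised with Alexa488 anti-GST antibody at 488 nm. Binding intensity is the highest Masliner-normalised natural-log median intensity across replicate spots of either probe orientation.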
row,Sequence,gcPBM binding intensity (ln)
1,AAATAAATACTAGGCACACACACATATATATATATA [CACACA_site2079],10.1 ± 0.15
2,TATATGTTTAATTTCACACACAAATATGCATTTTAA [CACACA_site7881],9.04 ± 0.36
3,ATTATTGTAATATTAGCACACATTACCTCACTACAA [CACACA_site2560],9.03 ± 0.44
4,AAATTTGCTTTACCAGTGCAAAAAAAAAAAAAAAAA,8.58 ± 0.42
5,AAATCACATAAAAATAGTACTTTTTTTTTTTTTTTT [XGTACX_site2696],8.57 ± 0.34
6,TGTTTTTATCCTTATGGTACAGTATAATACTTACAG [XGTACX_site6381],8.8 ± 0.41
7,GGAAAATGAAAACAAGGTACACATAAGAACAAACAA [XGTACX_site1221],9.32 ± 0.64
8,AATAGGGTCATTCAAAAAAAAAAAAAATAATAATAC [CACACA_negctrl_site644],8.6 ± 0.58
9,AATATAAAAATGTTTACACACACACGGAAATATATT [CACACA_site7226],9.46 ± 0.3
10,ATGTTGTACAAACACACACACAAAAAAAAAATAAAA [CACACA_site2406],9.6 ± 0.27
11,TAAAATTAATAAAATATTTTCACTTAATATATATAA [CACACA_negctrl_site1550],8.23 ± 0.52
12,ATATATATATGTGGATGTACATATATCTCTTATTAT [XGTACX_site1748],9.05 ± 0.42
13,AATTATTAAATATGTACACACGTACATTTTATAAAT [CACACA_site5341],8.8 ± 0.4
14,AGTACATTATAGAATACACACCTATATATATATATA [CACACA_site4447],9.68 ± 0.2
15,TATTTTGTTCTTTCCACACACAAATACATATATTGT [CACACA_site4071],9.37 ± 0.5
16,TAATACATACACACATGTACATACAGAAATAAATAA [XGTACX_site3245],9.24 ± 0.38
17,AAAAAGAAGAAGAAATGTACGTAACTATATATTTAT [XGTACX_site4362],8.87 ± 0.47
18,TTTTACATAAATTATAAATATATAAAATAAAAAAAA [CACACA_negctrl_site1499],8.24 ± 0.55
19,TTAATGGAAAAATAGGCACACACACCGATATACATA [CACACA_site8356],9.64 ± 0.26
20,TGGCTTTCCCTGCCGGTGCATTAACATTTTTTACAT [GTGCAC_site9914],8.97 ± 0.42
21,TTAATATTCCAGCTTTGTACATATATATATTATAAA [XGTACX_site7954],8.62 ± 0.38
22,CATATATATATTTTTTGTACATATATTTTTACATAT [XGTACX_site8419],9.04 ± 0.5
23,TTTATACAAATATGTACACACTAAATATATATTATG [CACACA_site4413],8.8 ± 0.41

row,Sequence,gcPBM binding intensity (ln)
1,AAAAAAAAAAAAAACACACAGAAATATATATATATT [CACACA_site832],8.9 ± 0.5
2,AAAGGAAAAGTTGACTGTACATAAGTAAAAAATAAT [XGTACX_site788],9.15 ± 0.72
3,ATTCATTCCATACTTTAACACACAAATATATTTAAT [CACACA_site7930],8.83 ± 0.47
4,ATGTTATTAATAATTGCACACATTTTTTTTTTTTTT [CACACA_site3920],9.1 ± 0.38
5,TCATATTTATATAAATGTACTTAATTGGTTTCTTTA [XGTACX_site7848],8.59 ± 0.49
6,AGATTGTAAGTAAACACACACACATATATATGTATA [CACACA_site675],9.62 ± 0.35
7,TTTTTGTAACCGATTCTGCACTGAGAAGCACATATA,8.62 ± 0.46
8,GAAATTACTTTATAAACACACATTTATTTTATTTTA [CACACA_site7007],8.63 ± 0.47
9,TTATTTACAAAACAAATCAAAATATCCAAAAGAATA [CACACA_negctrl_site1789],8.33 ± 0.44
10,ATATTATACGCATATGTGCGCATACATTTTTTTGCA [GTGCAC_site9540],8.99 ± 0.44
11,TACACATACAGACATACACACATACCCATATACTCA [CACACA_site5037],9.6 ± 0.41
12,GGCATATATATATGCACACATACATATATACATGTG [CACACA_site3859],9.7 ± 0.3
13,AAAAAAATAAAATATATATATATATATATATATATA [GTGCAC_negctrl_site706],9.54 ± 0.4
14,TATATATGGATATATACACACAACGGTTATAAATAT [CACACA_site6655],9.02 ± 0.44
15,TTTTTTAAAGTTTAAAGTACATATAAAAATATATAA [XGTACX_site5267],8.18 ± 0.57
16,AATATAGGAATATGCACACATATATACATACATACA [CACACA_site1521],9.3 ± 0.4
17,TATATATATATATTATGTACATATATAAATTAACAT [XGTACX_site3368],8.8 ± 0.33
18,CTTAAAATATATTTAGTGCATATACTAATATATTAT,8.54 ± 0.39
19,TATGAAAAAAAAAAAAAAAAAAAAAAAAAAAAAAAA [XGTACX_negctrl_site587],8.02 ± 0.15
20,ATATATATATATTTATGTACATATTATTTATTCTTT [XGTACX_site6567],9.05 ± 0.52
21,TAATGGTATAAAAAATGTACATGTTTTTTTACAATT [XGTACX_site4285],8.65 ± 0.41
22,ATTATTTGATTAAAGGTGCAAGGATAATAATAAAAC,8.82 ± 0.42
23,TATATTTACTTATATGCACACATAAATGTGAATTAT [CACACA_site9258],8.89 ± 0.36

row,Sequence,gcPBM binding intensity (ln)
1,TATTATATAATATACTGTACAATATCCATTATTTAC [XGTACX_site7091],8.81 ± 0.41
2,ACATATAATAAAATAGTGCATTGTTAGTTTTATATA,8.68 ± 0.44
3,AATTAATAAAAAAGGTGTACAGTAAATGCAATAATC [XGTACX_site7956],9.18 ± 0.39
4,GTTAATCACCATGTGGTGCATATAAGGGCATATTAT [GTGCAC_site9748],8.85 ± 0.47
5,TCTTTTATATATAATAATTATATATAACATTCAAAC [GTGCAC_negctrl_site112],8.53 ± 0.45
6,CCTTATACGATATTATGTACGCATATGTGCATTTTT [XGTACX_site1570],8.95 ± 0.4
7,ATAAATTCATACATTTGTACACAAAAAAAAAAAAAA [XGTACX_site2435],8.63 ± 0.42
8,CTCACATATATATATAGTACAATTTTTTTTTTTTTT [XGTACX_site5999],8.59 ± 0.33
9,ATGTAGAATTGTAAATGTACATGAAACACATATTCA [XGTACX_site3436],9.06 ± 0.38
10,TTTTTATGTGTATATTATTACATTTACATCTTTAAC [CACACA_negctrl_site1676],8.88 ± 0.48
11,ACAAGACAACAAGGAAGTACTCATAAATATATTTGG [XGTACX_site1423],9.02 ± 0.49
12,AATATATATATGTGTACACATCCAAAATAGGCATAC [CACACA_site5705],9.21 ± 0.38
13,TGTAAATATAAAAGATAATGATAAAAGGGACATTTT [CACACA_negctrl_site661],8.69 ± 0.4
14,ATATATATATAAATATGTACATATTTATATATGAAT [XGTACX_site3220],8.77 ± 0.42
15,ATCTATATTATAATAACACACATATATTATAGTATA [CACACA_site6330],8.79 ± 0.41
16,TATATATATATATTATGTACATATAAATATATTTTT [XGTACX_site1509],8.73 ± 0.31
17,AAGAAAAATACTACGTGTACCAAACTTCCTACCAAC [XGTACX_site1426],9.02 ± 0.39
18,TTATTTATTCTATGTGCATGTTATTTTTTTTTTTCG [TGCATGCA_site262],8.87 ± 0.38
19,AAAAATAAGATATATACACACATATAAATATAAATA [CACACA_site7396],9.11 ± 0.58
20,TTTGTATTAAAAAAAAAAAAAAAAAAAATGAATAAA [TGCATGCA_negctrl_site292],8.15 ± 0.45
21,ATAACGGAAAAAAAAAGTACATGATATAAACATGAA [XGTACX_site8428],8.8 ± 0.54
22,TTTTTTTTTTTTTTTTTTTTTTTTCATTTGATATTA [TGCATGCA_negctrl_site112],8.37 ± 0.2
23,CTTTAAACCCTGAACACACACAAATACACCCAAAAA [CACACA_site4297],9.52 ± 0.36

row,Sequence,gcPBM binding intensity (ln)
1,TATATATATATATGTGGTACATAAAATTATTATTTT [XGTACX_site4554],9.29 ± 0.085
2,AGAGAGAAAGTTATAACATGCAACAATTTTTAGAAG [TGCATGCA_site1],8.79 ± 0.52
3,ATAAAATTATCTACATGTACTCATATATATTTGTTT [XGTACX_site5911],9.32 ± 0.35
4,TTATAATATATATGTAGTACTGTTTTTTTCTATTTT [XGTACX_site7749],8.79 ± 0.54
5,TATTATTTTAAAAATGCATGTTCATATGAAATAATA [TGCATGCA_site969],8.6 ± 0.48
6,TGTACAAATATGTACACACACACATATATATATATA [CACACA_site584],9.88 ± 0.085
7,TTCGTTCTTTTATGCACACTCAACATATAAATTAAA [CACACA_site1209],8.79 ± 0.42
8,AAGGAGCCTATGAACACACACATGTACATATATTAA [CACACA_site4084],9.27 ± 0.38
9,ATACTATTATATATATGTACATATATATGATGCTCT [XGTACX_site1771],9.05 ± 0.36
10,CATATACATACACATACACACATACACCCATACACA [CACACA_site8514],9.68 ± 0.29
11,TGTAAAAAATTTAACACACACATATATAAATATGTA [CACACA_site7261],9 ± 0.33
12,AATATATATTTATGTACACACTCCAATACAGATACA [CACACA_site5481],8.96 ± 0.3
13,ATATGACGTAGTGGTGTACACACATGGTACCTTTAT [CACACA_site8436],9.38 ± 0.35
14,AGTAAATAATTATATACATGCATTTACTAATATTTA [TGCATGCA_site952],8.77 ± 0.41
15,CTTTATCTTCTCACGAAGATTGAATAAGGTATTCTT [XGTACX_negctrl_site307],8.5 ± 0.49
16,CAGACAATAAAGAAGTGTACACATATATCAATAAAA [XGTACX_site4515],9.26 ± 0.66
17,AAAAAAAAATACCTACGTACATATATATATTATATA [XGTACX_site3983],8.75 ± 0.47
18,AAAAAAAAAAAACACACACACACACCCACAAAATAT [CACACA_site1447],10.31 ± 0.028
19,TTAATGCACTTTATTACACACACTAGTTCATTACCT [CACACA_site2294],9.47 ± 0.45
20,AAAAAATAAAAAAAAACACACACATACAAGCATATA [CACACA_site8451],9.49 ± 0.26
